From the supplement of paper PMC13380429

How the values were obtained:
Conditions in all cases: 72 h
HepG2 [1] = assay: relative viability EC50 (midpoint between 100% and the lowest measured viability); higher = less toxic
Calu-3 [2] = assay: as above
Vero E6 [3] = assay: as above
U2OS [4] = assay: as above
Caco-2 [5] = assay: as above
HepG2 [6] = assay: drug sensitivity score (DSS) for viability; higher = more toxic; extreme values may be limits of the assay
Calu-3 [7] = assay: as above
Vero E6 [8] = assay: as above
U2OS [9] = assay: as above
Caco-2 [10] = assay: as above
HepG2 [11] = assay: cell viability relative to DMSO; higher = less toxic
Calu-3 [12] = assay: as above
Vero E6 [13] = assay: as above
U2OS [14] = assay: as above
Caco-2 [15] = assay: as above

With `CC(C)(C)c1ccc(O)cc1` [4-tert-butylphenol] the “relative viability EC50” value (HepG2 [1]) was > 10 µM, the “relative viability EC50” value (Calu-3 [2]) was > 10 µM and the “relative viability EC50” value (Vero E6 [3]) was > 10 µM. For the same compound, the “relative viability EC50” value (U2OS [4]) was > 10 µM, the “relative viability EC50” value (Caco-2 [5]) was > 10 µM and the drug sensitivity score (HepG2 [6]) was 0. The drug sensitivity score (Calu-3 [7]) was 0, the drug sensitivity score (Vero E6 [8]) was 0 and the drug sensitivity score (U2OS [9]) was 0. The drug sensitivity score (Caco-2 [10]) was 0, the cell viability (HepG2 [11]; 1 nM) was 91.7% and the cell viability (HepG2 [11]; 10 nM) was 101%. It also gave a cell viability (HepG2 [11]; 100 nM) of 90.6%, a cell viability (HepG2 [11]; 1000 nM) of 99% and a cell viability (HepG2 [11]; 10000 nM) of 99.4%. For the same compound, the cell viability (Calu-3 [12]; 1 nM) was 107%, the cell viability (Calu-3 [12]; 10 nM) was 90.8% and the cell viability (Calu-3 [12]; 100 nM) was 98.2%. For the same compound, the cell viability (Calu-3 [12]; 1000 nM) was 96.9%, the cell viability (Calu-3 [12]; 10000 nM) was 102% and the cell viability (Vero E6 [13]; 1 nM) was 98.1%. The cell viability (Vero E6 [13]; 10 nM) was 102%, the cell viability (Vero E6 [13]; 100 nM) was 95.9% and the cell viability (Vero E6 [13]; 1000 nM) was 98.8%. For the same compound, the cell viability (Vero E6 [13]; 10000 nM) was 99.4%, the cell viability (U2OS [14]; 1 nM) was 102% and the cell viability (U2OS [14]; 10 nM) was 104%. It also gave a cell viability (U2OS [14]; 100 nM) of 98.4%, a cell viability (U2OS [14]; 1000 nM) of 95.6% and a cell viability (U2OS [14]; 10000 nM) of 99.2%. It also gave a cell viability (Caco-2 [15]; 1 nM) of 100%, a cell viability (Caco-2 [15]; 10 nM) of 96.7% and a cell viability (Caco-2 [15]; 100 nM) of 105%. The cell viability (Caco-2 [15]; 1000 nM) was 97.9% and the cell viability (Caco-2 [15]; 10000 nM) was 89.3%.
